Laboratory results from PubChem BioAssay AID485344 (National Center for Advancing Translational Sciences (NCATS), 2010).
About 6,900 (2%) of roughly 340,000 compounds were called active. No stated cut-off is given here; in the data, active means inhibition above about 30%; inactive means below that, where a call was filed. The entries are a selection whose mix differs from that of the whole data set. Where no call is shown, the source filed none.

Target: D(2) dopamine receptor (Homo sapiens) (UniProt P14416)
Chain of UniProt P14416 (P14416 whole entry, looked up): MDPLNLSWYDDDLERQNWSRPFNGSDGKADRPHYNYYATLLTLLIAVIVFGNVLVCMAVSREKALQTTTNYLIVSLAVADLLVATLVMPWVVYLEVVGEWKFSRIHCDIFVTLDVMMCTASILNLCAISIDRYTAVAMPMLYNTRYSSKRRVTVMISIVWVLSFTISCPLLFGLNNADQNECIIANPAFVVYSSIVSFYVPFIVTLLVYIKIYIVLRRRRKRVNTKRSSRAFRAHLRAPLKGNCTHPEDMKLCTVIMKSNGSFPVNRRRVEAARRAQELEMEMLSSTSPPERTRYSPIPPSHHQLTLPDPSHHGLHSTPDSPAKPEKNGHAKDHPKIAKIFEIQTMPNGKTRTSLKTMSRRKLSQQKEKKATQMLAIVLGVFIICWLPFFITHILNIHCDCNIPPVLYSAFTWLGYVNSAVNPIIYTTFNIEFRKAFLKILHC
Experiment: HTS Assay for Allosteric Antagonists of the Human D2 Dopamine Receptor: Primary Screen for Antagonists; further: 0% is about no effect
Conditions: HEK293 TREx D2 cells, calcium flux, dopamine EC80; at 10 µM; stronger effect = higher value
In short: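 Calcium flux kinetic readout in an inducible HEK293 TREx D2 line plated overnight at 30 C. After 180 s compound exposure, an EC80 dopamine challenge follows with another 180 s kinetic read to detect antagonism.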

Point of comparison: CC1CN(C(=O)N2CCC(C(=O)NCc3ccco3)CC2)c2ccccc2O1 (centres undefined), inhibition 14.3%. Against it:
- CCOc1ccc(NC(=O)Cn2nc(CC)n3c(cc4sccc43)c2=O)cc1 — lower, -5.63%
- COc1cc(Nc2nc3c(S(=O)(=O)c4cccc(Cl)c4)nnn3c3ccsc23)cc(OC)c1 — lower, -3.47%
- COc1ccc(OCC(=O)Nc2cc(-c3nc4ccccc4o3)ccc2Cl)cc1 — lower, 4.55%
- COc1cccc(CNC(=O)c2ccc3nc(CCc4ccccc4)oc3c2)c1OC — lower, -7.75%
- CCc1cccc(C)c1Nc1c(-c2ccc(N(C)C)cc2)nc2cnccn12 — lower, -8.91%
- Cc1ccc(-n2nc(C)c3c(C)c(CCC(=O)NCc4ccc(Cl)cc4)c(C)nc32)cc1 — lower, 1.81%
- CCCOc1ccc(CN2C(=O)C(=O)c3cccc(C)c32)cc1 — lower, 7.83%
- CCc1ccc(C(=O)c2cn(CC(=O)Nc3cc(OC)cc(OC)c3)c3ccc(CC)cc3c2=O)cc1 — lower, -11.5%
- CCOc1ccc(CNCCSc2nnnn2C)cc1 — lower, 9.22%
- Cc1ccc(-c2nc(CS(=O)(=O)CC(=O)N3CCN(c4ccccc4)CC3)c(C)o2)cc1 — lower, -2.7%
- Cc1cccc(NC(=O)CSc2nc3ccc(NC(=O)CCc4ccccc4)cc3s2)c1 — lower, -2.53%
- COc1ccc(CNC(=O)c2cc3c(=O)n(Cc4ccc(OC)cc4)ccc3nc2C)cc1 — lower, 2.23%
- COc1cc(Br)cc2cc(S(=O)(=O)c3ccccc3)c(=O)oc12 — lower, 2.7%
- Cc1ccc(-c2noc(-c3cccnc3N(C)Cc3ccc(Cl)cc3)n2)cc1 — higher, 15.8%
- COc1cccc(NCc2nnc3n2CCCCC3)c1 — lower, 2.31%
- CCCSCCCNC(=O)c1sc2nc(C)cc(C)c2c1-n1cccc1 — lower, 10.7%
- CCOc1ccc(NC(=O)CN(c2ccc(C)cc2)S(=O)(=O)c2cccs2)cc1 — lower, 4.11%
- O=S1(=O)c2ccccc2N(Cc2ccc(F)cc2)c2ccccc21 — lower, -1.43%
- COc1ccc(Nc2nnc(-n3nc(C)cc3C)c3ccccc23)cc1 — lower, 1.31%
- O=C(NCCOCCn1c(=O)oc2ccccc21)Nc1ccc(F)cc1F — lower, -8.68%
- COc1ccc(-c2cc(C(=O)Oc3ccc(C#N)cc3)no2)cc1 — lower, -0.584%
- COc1ccc(CNC(=O)C(CC(C)C)NS(=O)(=O)c2ccc3c(c2)CCN3C(C)=O)cc1 (centres undefined) — lower, -12.4%
- Cc1ccc(Cl)cc1N1CCN(C(=O)CCc2nnc3n(C)c(=O)c4ccccc4n23)CC1 — lower, -5.46%
- COc1ccc(CCN2C(=O)CN(C3CCCCCC3)C(=O)C2c2ccc(Cl)cc2)cc1OC (centres undefined) — higher, 15.8%
- CCN(Cc1ccccc1)C(=O)c1cn(-c2cccc(OC)c2)c(=O)c2ccccc12 — lower, -0.163%
- Cc1ccc(NC(=O)CSc2nc3n[nH]c(C)c3c(=N)n2-c2ccccc2C)cc1C — lower, -27.7%
- O=C(Cn1ncc2c3ccccc3n(Cc3ccccc3)c2c1=O)NCCCN1CCCCC1 — lower, -2.09%
- COc1ccccc1C1C(C(=O)Nc2ccccc2)=C(C)Nc2nc(-c3ccccc3)nn21 (centres undefined) — higher, 17%
- CC(=O)N1CCc2cc(S(=O)(=O)NC(Cc3ccccc3)C(=O)Nc3cc(C)cc(C)c3)ccc21 (centres undefined) — lower, 7.69%
- CC1CCCCN1CCCNC(=O)Cn1ncc2c3ccccc3n(Cc3ccccc3)c2c1=O (centres undefined) — higher, 16.4%
- CCN(CC)S(=O)(=O)c1nnc(NC(=O)c2ccc(C)cc2)s1 — lower, -21.9%
- Cc1ccc2ncc(C(=O)c3ccc(C)c(C)c3)c(S(=O)(=O)c3ccccc3)c2c1 — lower, -6.54%
- CCOc1cccc(C2c3c(oc4ccc(F)cc4c3=O)C(=O)N2c2cc(C)ccn2)c1 (centres undefined) — higher, 16%
- CC1CCN(c2nc3ccccc3nc2C(F)(F)F)CC1 — lower, -2.53%
- Cc1cccc(CN2C(=O)c3ccccc3Sc3ccc(C(=O)NCCCN4CCOCC4)cc32)c1 — higher, 15.8%
- O=C(Nc1nc2ccccc2n1CCOc1ccccc1Cl)c1ccccc1 — higher, 17.7%
- COc1ccc(CNC(=O)c2cc3oc4ccccc4c3n2C)cc1OC — lower, -2.92%
- CCc1ccc(S(=O)(=O)c2nnn3c2nc(N2CCC(C(N)=O)CC2)c2cc(Cl)ccc23)cc1 — lower, 2.53%
- Cc1c(C(=O)Nc2cccc(C#N)c2)sc2nc3n(c(=O)c12)CCCCC3 — higher, 24%
- COC(=O)c1sc2cccc(F)c2c1S(=O)(=O)Nc1cc(C)c(Cl)cc1OC — lower, 8.95%
- O=C(COc1ccc(Cl)cc1)Nc1ccc(-c2nc3cc(Cl)ccc3o2)c(O)c1 — lower, -2.12%
- CCCNC(=O)C1CCC(Cn2c(=O)c3sccc3n(CC(=O)N3CCCC3)c2=O)CC1 (centres undefined) — higher, 15.4%
- CCc1cccc(C)c1NC(=O)CN1C(=O)c2ccccc2Sc2ncccc21 — lower, 3.9%
- COC(=O)c1ccc(NC(=O)NC(C)c2c(-n3cccc3)sc(C)c2C)cc1 (centres undefined) — lower, -19.1%
- COc1ccc(Cl)cc1NC(=O)c1sc2nc(-c3ccc(OC)c(OC)c3)ccc2c1N — lower, -7.54%
- O=C(NCc1ccccc1)c1ccc2c(c1)N(Cc1ccc(F)cc1)CCS2 — lower, 8.83%
- CCC(=O)Nc1ccccc1-c1nc2ccccc2n(CC(=O)Nc2ccc(C)c(C)c2)c1=O — higher, 15.5%
- Cn1c(=O)c2cc(C(=O)Nc3cccc(C#N)c3)sc2c2ccccc21 — lower, 12.4%
- COc1ccc(C2=NN(CC(=O)NCCc3ccccc3)C(=O)CC2)cc1 — higher, 24.2%
- COc1ccc2c(c1)CC(C(=O)Nc1ccc(OC)cc1OC)CO2 (centres undefined) — higher, 25.3%
- O=S(=O)(c1ccc(OC(F)(F)F)cc1)N1CCC(c2nc3ccccc3s2)CC1 — lower, -24.5%
- CCOc1ccc(OCC)c(Nc2nc3ccc(C(=O)c4ccccc4)cc3n3cnnc23)c1 — lower, 8.22%
- O=C(Cn1cc(SCc2ccccc2F)c2ccccc21)N1CCCC1 — higher, 23.9%
- COc1ccc(NC(=O)c2c(NCc3cccs3)sc3c2CCCCC3)c(OC)c1 — lower, 4.03%
- Cc1cc(Br)ccc1NC(=O)CCNS(=O)(=O)c1cccc2nonc12 — lower, -6.64%
- O=C(Nc1ccc(Br)cc1F)c1cc2nc(-c3ccco3)cc(C(F)(F)Cl)n2n1 — lower, -11.3%
- CCOc1ccc(Cn2c(CNS(=O)(=O)c3ccc(CC)cc3)nc3cccnc32)cc1 — lower, -2.24%
- CCCn1cc(S(=O)(=O)c2ccc(CC)cc2)c(=O)c2cc(F)c(N3CCN(C)CC3)cc21 — lower, 1.29%
- CCOC(=O)c1c(S(=O)(=O)N2CCN(c3cccc(C(F)(F)F)c3)CC2)c(C)n(C)c1C — lower, 3.44%
- CNC(=O)c1ccc2nc(Cc3ccccc3)oc2c1 — higher, 19.5%
- COc1ccc(OC)c(CCNC(=O)c2nn(C)c3c2CSc2ccccc2-3)c1 — higher, 24.5%
- CC(C)c1ccc2oc(-c3ccc(Cl)c(NC(=O)Cc4ccccc4)c3)nc2c1 — lower, 4.84%
- CCC1CCc2c(sc(NC(=O)C3c4ccccc4Oc4ccccc43)c2C(=O)OC)C1 (centres undefined) — lower, 7.24%
- Cc1ccc(C(=O)c2oc3ccccc3c2NC(=O)C(C)Oc2ccccc2Cl)cc1 (centres undefined) — lower, 11.9%
- CCOC(=O)N1CCC(NC(=O)c2ccc3c(c2)N(Cc2ccc(Cl)cc2)C(=O)c2ccccc2S3(=O)=O)CC1 — higher, 26.8%
- CCOC(=O)c1ccc(N2C(=O)c3n[nH]c(-c4cccs4)c3C2c2ccc(OC)cc2OC)cc1 (centres undefined) — lower, 6.3%
- Cc1ccc(NC(=O)c2ccc(N(Cc3ccccc3)S(C)(=O)=O)cc2)cc1 — lower, 7.2%
- O=C(Nc1nc2c(s1)CCCC2)c1ccccc1F — lower, -3.09%
- CC(C)c1ccc(C2=NC(c3ccncc3)=Nc3ccc(F)cc3N2)cc1 — lower, 13.1%
- Cc1noc2ncnc(NCc3ccc(Cl)cc3)c12 — lower, -0.849%
- CN(C)c1ccc(C(=O)Nc2ccc(-c3nc4ccccc4o3)cc2)cc1 — lower, 1.28%
- Cc1ccc(-c2cc(NC(=O)C(C)Oc3ccccc3F)on2)cc1 (centres undefined) — lower, -1.73%
- Cc1cc(NC(=O)C2CCCN(S(=O)(=O)c3cn(C)cn3)C2)ccc1Br (centres undefined) — lower, 11.3%
- Cn1c(C(=O)N2CCC(C(=O)N3CCN(c4ccccc4)CC3)CC2)cc2sccc21 — lower, -4.34%
- Cc1nnc(N2CCN(c3cccc(C(F)(F)F)c3)CC2)c2c1nnn2Cc1ccccc1 — higher, 14.5%
- Cc1ccc(CNC(=O)c2c[nH]n3c(=O)c(Cc4ccc(F)cc4Cl)c(C)nc23)cc1 — lower, -11.7%
- COc1ccc(N2Cc3cccc(C(=O)Nc4cccc(F)c4)c3C2=O)cc1 — lower, -5.28%
- CC(C)Oc1ccc(CNC(=O)c2cccc(NC(=O)c3nsc4ccccc34)c2)cc1 — lower, 5.1%
- CCOc1ccc(CC(=O)Nc2c(C(=O)c3ccc(F)cc3)oc3ccc(Cl)cc23)cc1OCC — lower, -3.99%
- COc1ccc(Nc2c3c(nc4ccc(NC(=O)c5cc(Cl)ccc5OC)cc24)CCCC3)cc1OC — lower, -8.95%
- O=C(Nc1ccc(C(=O)OCc2cc(=O)n3ccsc3n2)cc1)c1cccc(F)c1 — lower, 14.1%
- Cc1cc(C)cc(NC(=O)N2CCC(N3CCN(Cc4ccccc4)C(=O)C3=O)CC2)c1 — lower, 11.4%
- COc1ccc(OC)c(CNC(=O)C2CCN(S(=O)(=O)c3ccc4[nH]c(=O)oc4c3)CC2)c1 — lower, 4.38%

With CCOCCCN(C)C1CCN(C(=O)c2oc3ccccc3c2NC(=O)COc2ccc(F)cc2)CC1 the inhibition was active: 50.4%.
With CC(=O)NC(=S)Nc1ccccc1C(=O)Nc1ccccc1 the inhibition was active: 46.7%.
With CCCc1cc(=O)[nH]c(SCC(=O)N2CCN(S(=O)(=O)c3ccc(C)cc3C)CC2)n1 the inhibition was active: 40.9%.
With CCCn1c(N)c(C(=O)CSc2nc3ccccc3c(=O)n2-c2ccc(OC)cc2)c(=O)[nH]c1=O the inhibition was active: 33.2%.
COCCNC(=S)Nc1cc2oc3ccccc3c2cc1OC was tested, and the inhibition was active: 30%.
In the case of c1ccc(-c2ccccc2OCCCCN2CCCCC2)cc1, the inhibition is reported as active: 74.9%.
With CCOC(=O)c1cnn(Cc2cccc(Cl)c2)c1C the inhibition was active: 55.8%.
With O=C(N/N=C/c1cccnc1)c1cccc(Cl)c1 the inhibition was active: 35%.
COc1ccc2c(c1)-c1nc(/N=C/c3ccc(O)cc3)sc1CC2 was tested, and the inhibition was active: 44.9%.
With COc1ccccc1/C=C/CN1CCN(Cc2ccc(C)o2)C(CCO)C1 (centres undefined) the inhibition was active: 49.2%.
In the case of C=CCNC(=O)c1ccccc1Cl, the inhibition is reported as active: 40.2%.
Clc1ccc(OCCN2CCCCC2)c(Cl)c1 was tested, and the inhibition was active: 72.2%.
For c1ccc(CN2CCN(c3ncccn3)CC2)nc1, the inhibition was active: 37.3%.
CN1CCN(C(c2cccs2)c2nnnn2Cc2ccc(F)cc2)CC1 (centres undefined) was tested, and the inhibition was active: 41.5%.
With CC(NC(=O)COC(=O)CCc1ccccc1)c1ccccc1 (centres undefined) the inhibition was active: 34.8%.
